Here are results for 90 compounds from article PMC4336329 (PLoS ONE, 2015).

Hit rate of the full screen: of about 310,000 compounds, about 14,000 (4.5%) showed an effect of 50% or more. Effects have a minus sign here. The list shows a part of the results.
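Further: peak tail current of the secondary pulse compared with the same well before compound.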

human ether-à-go-go-related gene (hERG) potassium channel, sequence (Q12809 whole entry, looked up): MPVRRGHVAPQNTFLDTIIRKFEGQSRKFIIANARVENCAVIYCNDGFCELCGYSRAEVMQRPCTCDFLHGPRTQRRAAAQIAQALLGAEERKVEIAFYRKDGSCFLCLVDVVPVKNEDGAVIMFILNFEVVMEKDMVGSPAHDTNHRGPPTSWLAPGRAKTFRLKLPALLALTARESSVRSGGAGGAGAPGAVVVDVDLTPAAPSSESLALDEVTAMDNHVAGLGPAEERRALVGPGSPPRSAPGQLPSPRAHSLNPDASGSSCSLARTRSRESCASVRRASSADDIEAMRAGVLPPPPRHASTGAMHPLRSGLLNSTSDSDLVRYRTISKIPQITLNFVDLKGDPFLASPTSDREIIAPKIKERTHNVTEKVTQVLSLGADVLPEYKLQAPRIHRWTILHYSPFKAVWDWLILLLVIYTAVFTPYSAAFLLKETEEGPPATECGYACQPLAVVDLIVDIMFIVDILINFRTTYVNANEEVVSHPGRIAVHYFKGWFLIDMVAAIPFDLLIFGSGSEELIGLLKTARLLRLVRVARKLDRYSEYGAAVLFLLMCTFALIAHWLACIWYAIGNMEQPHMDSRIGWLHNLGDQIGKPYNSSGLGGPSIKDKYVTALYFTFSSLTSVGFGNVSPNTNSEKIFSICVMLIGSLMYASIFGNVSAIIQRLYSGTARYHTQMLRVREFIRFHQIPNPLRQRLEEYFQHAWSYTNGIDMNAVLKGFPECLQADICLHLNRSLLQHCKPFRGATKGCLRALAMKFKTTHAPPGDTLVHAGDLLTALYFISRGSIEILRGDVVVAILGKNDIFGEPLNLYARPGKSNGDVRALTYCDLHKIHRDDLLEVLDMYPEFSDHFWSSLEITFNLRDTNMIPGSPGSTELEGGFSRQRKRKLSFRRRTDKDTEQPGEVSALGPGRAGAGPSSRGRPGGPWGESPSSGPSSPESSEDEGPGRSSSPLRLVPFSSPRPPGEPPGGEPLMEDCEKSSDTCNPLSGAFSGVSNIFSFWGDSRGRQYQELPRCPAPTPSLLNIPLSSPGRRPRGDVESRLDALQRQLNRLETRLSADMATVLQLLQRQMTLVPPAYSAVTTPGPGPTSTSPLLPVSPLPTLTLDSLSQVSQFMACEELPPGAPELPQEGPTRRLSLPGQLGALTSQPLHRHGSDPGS

The experiment has as its target human ether-à-go-go-related gene (hERG) potassium channel (human, UniProt Q12809). Nature of the experiment: primary screen, population patch clamp on CHO cells stably expressing hERG.
Turning to `CC(C)(C)OC(=O)N1CCC(C(=O)N2CCCCCC2)CC1`, the “hERG current change (%, negative = inhibition) at 10uM” value worked out at 11.6%.
In the case of `[Cl-].c1ccc(-[n+]2nc(Nc3cccc4ccccc34)sc2-c2c3ccccc3cc3ccccc23)cc1` it was 18%.
In the case of `Cc1ccc2c(c1)N(C(=O)CCC(=O)NCCN1CCOCC1)CCO2` it was -5.63%; in that of `COc1cccc(/C=C/c2onc(C)c2S(=O)(=O)N2CCC(C(=O)NC3CCCCCC3)CC2)c1`, 6.49%; in that of `Cc1ccc(NC(=O)CCN2C(=O)c3ccccc3S2(=O)=O)cc1F`, -2.5%.
In the case of `O=C1CCN(c2ccc([N+](=O)[O-])cc2F)CC1` it was 10.5%; in that of `COc1ccc(-c2nnc(NC(=O)c3ccc(F)cc3)o2)cc1`, 2.78%.
Regarding `CC(C)CCn1nnnc1CN1CCN(c2ccc(F)cc2)CC1`, the “hERG current change (%, negative = inhibition) at 10uM” value is -19.2%.
In the case of `CC(Cc1cccs1)NC(=O)NC1CCCCC1` (stereo not drawn) it was 4.12%; in that of `CC(=O)Nc1nc2ccc(-c3nc4ccccc4o3)cc2s1`, 2.79%.
In the case of `O=C(Nc1ccc(Cl)cc1)c1csc(Cc2ccccc2)n1` it was 9.91%; in that of `C/C(Cn1nc([N+](=O)[O-])cc1C)=N\NC(=O)c1ccc(C(C)(C)C)cc1`, -38.9%.
In the case of `CCCCn1c(-c2cccc3ccccc23)nc2cc3[nH]c(=O)c(C(C)C)nc3cc21` it was -0.565%; in that of `O=P(c1ccccc1)(c1ccccc1)C(O)c1ccc(Br)cc1` (stereo not drawn), 26.3%.
On to `Nc1cccc2c1C(=O)N(C(=O)c1ccc(S(=O)(=O)N3CCCCCC3)cc1)C2=O`, for which the “hERG current change (%, negative = inhibition) at 10uM” value is -5.3%.
Consider `O=[N+]([O-])c1cc(C(F)(F)F)cc([N+](=O)[O-])c1NCCCN1CCOCC1`, for which the “hERG current change (%, negative = inhibition) at 10uM” value is given as -30.6%.
On to `Cc1ccc(NS(=O)(=O)c2cc(C(=O)NCc3ccccn3)ccc2Cl)cc1`, for which the “hERG current change (%, negative = inhibition) at 10uM” value is 1.61%.
In the case of `COc1ccc(N2CCN(C(CNC(=O)C(C)(C)C)c3ccco3)CC2)cc1` (stereo not drawn), the “hERG current change (%, negative = inhibition) at 10uM” value is reported as -11%.
Then `Cc1onc(-c2ccccc2)c1C(=O)Nc1ccncc1`, with 26.9%.
In the case of `CC(=O)N1CN2CN(C1)CN(C(C)=O)C2` it was 2.45%.
As to `COc1ccc(N2C(=O)NC(=O)/C(=C/c3ccc4c(c3)Cc3ccccc3-4)C2=O)cc1`, the “hERG current change (%, negative = inhibition) at 10uM” value stood at 5.74%.
In the case of `CCC(=NCCCN(CC)CC)c1c(O)n(-c2ccccc2)c(=O)[nH]c1=O` it was -4.73%.
In the case of `CC(C)CN1CCC(=O)N(CCOc2ccccc2)CC1` it was 13.1%; in that of `COC(=O)c1nc2ccccc2s1`, 6.89%; in that of `COc1ccc(C(=O)NCc2nnc(SCC(=O)N3CCC(C)CC3)o2)cc1OC`, 8.24%.
For the compound `CCc1c(C(=O)NNC(=S)NCc2ccccc2)csc1C`, the “hERG current change (%, negative = inhibition) at 10uM” value is -2.33%.
Take `O=C(CSc1nc2ccccc2c(=O)n1-c1ccccc1)N1CCC1`: the “hERG current change (%, negative = inhibition) at 10uM” value is given as 15.8%.
Regarding `CC1=C(C(=O)OCc2ccccc2)C(c2ccoc2)C(C#N)=C(N)O1` (stereo not drawn), the “hERG current change (%, negative = inhibition) at 10uM” value is recorded as 4.45%.
Then `CCc1ccc(CN(C)CC(=O)Nc2ccccc2[N+](=O)[O-])cc1`, with -3.65%; and `CP(=O)(COC(=O)c1ccccc1)COC(=O)c1ccccc1`, with -2.14%.
In the case of `O=C(NCCN1CCCc2ccccc21)C1CCC(=O)N(CCc2ccccc2)C1` (stereo not drawn) it was 1.86%; in that of `Nc1ccc(-c2nc(-c3ccccc3)nc3ccccc23)cc1`, 5.34%; in that of `COCCn1c(SCC(=O)Nc2cc(C(C)(C)C)nn2-c2ccccc2)nc2ccccc2c1=O`, -4.39%.
Then `CCN(CC)CCN(C(=O)/C=C/c1cccs1)c1nc2ccc(F)cc2s1.Cl`, with -34.4%; and `CCN(C(=O)CSC1=Nc2ccccc2C2CC=NN12)C1CCS(=O)(=O)C1` (stereo not drawn), with 25.4%.
Turning to `Cc1cc(OC(=O)c2ccco2)c2c3c(c(=O)oc2c1)CCC3`, the “hERG current change (%, negative = inhibition) at 10uM” value came out at 5.13%.
On to `CN=c1scc(-c2ccc(OC)cc2)n1/N=C(\C)c1cccnc1`, for which the “hERG current change (%, negative = inhibition) at 10uM” value is -4.25%.
In the case of `O=c1c(Cl)c(Nc2cccc(Cl)c2)cnn1-c1nc2ccccc2s1` it was -2.51%; in that of `Nc1ccc(N2CCCCC2)c(Cl)c1`, 19.3%; in that of `COc1ccc(CN2CCN(C(=O)c3c(-c4ccccc4)noc3C)CC2)cc1F`, -32.1%.
In the case of `Fc1ccc(-n2cc(-c3ccccc3)c3c(NN4CCOCC4)ncnc32)cc1` it was -42.1%.
Take `CN(C)CCN=Cc1c(O)n(Cc2ccc3c(c2)OCO3)c(=S)[nH]c1=O`: the “hERG current change (%, negative = inhibition) at 10uM” value was 3.36%.
With `Cc1nc2ccccc2c(=O)n1/N=C/c1c(O)ccc2ccccc12`, the “hERG current change (%, negative = inhibition) at 10uM” value is reported as -5.63%.
Then `Cc1ccc(Nc2nc(N)c([N+](=O)[O-])c(NCc3ccco3)n2)cc1C`, with -2.03%; and `Cc1ccc2nc(SCc3ccc([N+](=O)[O-])cc3)nc(C)c2c1`, with 0.901%.
In the case of `COC(=O)c1cc(S(=O)(=O)NCC2CCN(Cc3ccc(Cl)cc3)CC2)cn1C` it was -17%; in that of `Cc1cc(NC(=O)NC(=O)c2ccccc2F)no1`, 13.7%.
Then `CC(O)CNc1nc2c(c(=O)n(C)c(=O)n2C)n1Cc1cccc(Br)c1` (stereo not drawn), with 4.29%; and `CC(CCc1ccccc1)NCC(O)COc1ccccc1` (stereo not drawn), with -73.4%.
Turning to `Cc1ccc(/C=N/NC(=O)C2=NNC(c3ccccc3)(c3ccccc3)C2)c(O)c1`, the “hERG current change (%, negative = inhibition) at 10uM” value is recorded as -7.94%.
Then `CCc1ccc(CNCc2cccnc2)cc1`, with -2.35%; and `CC(=O)Nc1ccc(NC(=O)CSc2nnc(NC(=O)C3CC(=O)N(c4ccc(F)cc4)C3)s2)cc1` (stereo not drawn), with 9.69%.
In the case of `C/C(=N\NC(=O)Cc1csc(N2CCOCC2)n1)c1ccccc1` it was -11.8%.
Then `CCOC(=O)c1sc(=S)n(-c2ccc(OC)cc2)c1C`, with -51.1%; and `CC(=O)NC(CCS(C)(=O)=O)C(=O)Nc1cc(C)on1` (stereo not drawn), with 6.57%.
In the case of `O=C(CSc1nc2ccccc2o1)NCc1n[nH]c(=O)c2ccccc12`, the “hERG current change (%, negative = inhibition) at 10uM” value was -7.18%.
Then `CCOC(=O)c1cc2n(c1C)-c1ccccc1C2=O`, with 1.53%.
In the case of `CC1(C)NC(=O)N(CC(O)CN(c2ccccc2)S(=O)(=O)c2ccc([N+](=O)[O-])cc2)C1=O` (stereo not drawn) it was -13.7%; in that of `CC1(C)Cc2c(sc3c2C2=NCCN2C=N3)CO1.Cl`, 5.66%.
On to `Cc1ccc(C(C(=O)NC(C)(C)C)N(CCCN2CCOCC2)C(=O)c2ccc(-c3ccccc3)[nH]2)o1` (stereo not drawn), for which the “hERG current change (%, negative = inhibition) at 10uM” value is given as -76.5%.
Then `Cn1ccnc1C(O)(c1nnc(-c2ccccc2)o1)C(F)(F)F` (stereo not drawn), with 11.3%; and `COC(=O)c1ccc(OC(=O)C2CSC3(C)CCC(=O)N23)cc1` (stereo not drawn), with -1.4%; and `CN(C(=O)CS(=O)(=O)c1cn(CC(=O)N2CCOCC2)c2ccccc12)c1ccccc1`, with 0.304%.
Then `COc1cccc(CC(=O)NCC2COc3ccccc3O2)c1OC` (stereo not drawn), with -3.65%.
In the case of `Cc1cc(C)c2c3c(sc2n1)C(=O)N(c1ccccc1)CC(=O)N3` it was 24%; in that of `C=CCn1cc(/C=N/Nc2nc3ccccc3[nH]2)c2ccccc21`, 2.61%; in that of `CCCCc1ccc(NC=C2C(=O)OC3(CCCCC3)OC2=O)cc1`, 4.92%.
For `Nc1c(C(=O)NCc2ccco2)c2nc3ccccc3nc2n1Cc1ccc(F)cc1`, the “hERG current change (%, negative = inhibition) at 10uM” value came to 7.04%.
Then `CCOc1cc(C2NCc3ccccc3-n3cccc32)ccc1O.Cl` (stereo not drawn), with -11.8%; and `O=C(CSc1nnc(NC(=O)c2c(F)cccc2F)s1)Nc1ccccc1F`, with 6.53%; and `Cn1c(CNC(=O)c2ccccc2F)cc2ccccc21`, with 13.2%.
Then `CN1CCCN(C(=O)CC2(CC(=O)O)CCCCC2)CC1.Cl`, with 28%; and `O=C(CSc1nccc(=O)[nH]1)N1CCOCC1`, with 3.03%.
In the case of `C=CCNC(=O)CCCOc1cc(C)ccc1C` it was -9.84%; in that of `Cc1ccc(C#N)c(SCc2cccc(Br)c2)n1`, 12.6%; in that of `Cc1ccc(C(c2nnnn2CC2CCCO2)N2CCN(C)CC2)cc1.Cl` (stereo not drawn), -7.48%.
With `O=C(OCc1nnc(-c2ccc(Br)cc2)o1)c1cncc(Br)c1`, the “hERG current change (%, negative = inhibition) at 10uM” value is reported as -2.38%.
For the compound `c1nc(N2CCOCC2)c2[nH]cnc2n1`, the “hERG current change (%, negative = inhibition) at 10uM” value turned out to be 9.77%.
In the case of `CC1CCN(CCCNS(=O)(=O)c2ccc3c(c2)CCN3C(=O)C2CC2)CC1` it was -0.0814%; in that of `CCc1cc(C(=O)c2ccc(OC)cc2)c(NC(=O)CC(C)(C)CC(=O)O)s1`, 8.98%.
Then `CCOC(=O)c1cc2c(s1)-c1c(C)cccc1OC2`, with 7.36%; and `Cc1ccc(N2CC(C(=O)NCCS(=O)(=O)N3CCN(c4ccccc4)CC3)CC2=O)cc1C` (stereo not drawn), with -1.56%.
Then `CNC(=S)N1N=C(c2ccc(Br)cc2)CC1c1ccc(Br)cc1` (stereo not drawn), with 4.92%; and `COc1cc(OC)c(C(=O)NCc2cccnc2)cc1OC`, with 2.26%; and `O=c1c2sccc2[nH]c(=S)n1-c1ccccc1`, with -12.5%.
Take `CC1CCCN(c2cc(N(C)CCO)c([N+](=O)[O-])c3nonc23)C1` (stereo not drawn): the “hERG current change (%, negative = inhibition) at 10uM” value was 6.11%.
In the case of `CSCCC(NC(=O)c1ccccc1Br)C(=O)NNC(=O)c1ccco1` (stereo not drawn) it was 13.6%; in that of `CCCNS(=O)(=O)c1ccc(CCC(=O)NCC2CCCO2)cc1` (stereo not drawn), 11.5%.
Turning to `COCCNC(=O)CN1CCC(NC(=O)Nc2ccccc2)CC1`, the “hERG current change (%, negative = inhibition) at 10uM” value is listed as -8.21%.
`CC1(OC(=O)C2CCCC2)C(=O)C=C2C=C(c3ccc(C#N)cc3)OC=C2C1=O` (stereo not drawn): the “hERG current change (%, negative = inhibition) at 10uM” value amounted to 26.3%.
